Measurements: PubChem BioAssay AID504332 (National Center for Advancing Translational Sciences (NCATS), 2011)
In all, about 350,000 compounds went through this assay and about 31,000 (8.9%) were called active. This list was built around the results that the source calls inconclusive (neither active nor inactive); the mix of calls is not that of the screen. Calls come from the whole dose curve; as a rule, active = well fitted inhibition curve with a large enough effect; inconclusive = small, poorly fitted or top-dose-only effect; inactive = no such curve, though single readings can be large or run the other way. Where the call is inconclusive, the potency comes from a doubtful curve fit.

Target: Histone-lysine N-methyltransferase EHMT2 (Homo sapiens) (UniProt Q96KQ7)
UniProt Q96KQ7, sequence (Q96KQ7 whole entry, looked up): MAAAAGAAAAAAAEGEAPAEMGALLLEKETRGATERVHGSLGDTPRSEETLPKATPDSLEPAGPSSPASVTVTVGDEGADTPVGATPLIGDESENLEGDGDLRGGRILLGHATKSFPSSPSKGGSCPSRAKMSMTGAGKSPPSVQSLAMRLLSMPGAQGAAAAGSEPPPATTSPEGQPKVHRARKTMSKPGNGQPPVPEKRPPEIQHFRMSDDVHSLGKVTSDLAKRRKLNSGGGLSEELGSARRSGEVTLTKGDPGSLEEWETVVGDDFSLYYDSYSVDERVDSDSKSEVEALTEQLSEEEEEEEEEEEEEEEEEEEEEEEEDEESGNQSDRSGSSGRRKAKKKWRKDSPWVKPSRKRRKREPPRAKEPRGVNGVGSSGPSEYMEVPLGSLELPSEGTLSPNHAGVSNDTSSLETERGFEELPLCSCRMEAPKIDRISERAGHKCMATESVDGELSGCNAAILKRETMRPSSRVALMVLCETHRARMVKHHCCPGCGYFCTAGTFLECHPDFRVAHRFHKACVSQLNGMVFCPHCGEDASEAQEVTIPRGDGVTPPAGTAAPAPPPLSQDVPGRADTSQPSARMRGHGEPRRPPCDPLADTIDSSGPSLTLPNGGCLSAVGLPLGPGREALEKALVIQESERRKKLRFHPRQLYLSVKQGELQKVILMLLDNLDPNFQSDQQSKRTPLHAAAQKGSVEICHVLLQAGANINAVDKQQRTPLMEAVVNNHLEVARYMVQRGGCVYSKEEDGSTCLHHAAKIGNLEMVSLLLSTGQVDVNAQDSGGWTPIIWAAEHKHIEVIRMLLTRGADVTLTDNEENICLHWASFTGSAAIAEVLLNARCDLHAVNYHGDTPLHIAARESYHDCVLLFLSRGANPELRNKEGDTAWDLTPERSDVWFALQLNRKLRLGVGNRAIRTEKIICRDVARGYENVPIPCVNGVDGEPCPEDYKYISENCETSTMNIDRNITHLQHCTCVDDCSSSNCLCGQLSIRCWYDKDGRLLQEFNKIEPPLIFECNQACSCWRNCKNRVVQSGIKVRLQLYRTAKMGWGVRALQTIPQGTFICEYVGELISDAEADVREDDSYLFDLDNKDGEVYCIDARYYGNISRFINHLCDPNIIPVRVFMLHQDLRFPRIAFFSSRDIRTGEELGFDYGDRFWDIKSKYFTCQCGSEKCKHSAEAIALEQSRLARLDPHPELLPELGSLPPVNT
Assay: qHTS Assay for Inhibitors of Histone Lysine Methyltransferase G9a; note: nearly all actives have a fitted effect of over 75% in size
Conditions: G9a H3K9 monomethylation, AlphaScreen, 2 h; activity, negative = inhibition: at 59 µM (top of the series) unless noted
Outline: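 Using a bead-based AlphaScreen, monomethylated H3K9 product from 2 h room-temperature reactions (G9a 20 nM, peptide 500 nM, SAM 20 uM) was detected with 0.5 ug/mL rabbit anti-H3K9me1 antibody.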
% is set by controls: 0 for no effect and ±100 for the full control effect; potency is the fitted concentration of half-maximal effect; tags give direction and shape of the fitted curve.

Compound | activity, negative = inhibition | Potency
CC(C)CC(=O)Nc1ccc(C(=O)NNC(=S)NC(=O)C2CCCCC2)cc1 | inconclusive: -89.9% [inhibitor] | 
O=C(CN1CCCC1)Nc1ccccc1Cl | inactive: 2.69% [at 102 µM] | 
CS(=O)(=O)N(CC(=O)NC1CC1)C1CCCCC1 | inactive: 11.6% | 
O=C(NCc1ccc(Cl)cc1)C(=O)NCC(c1ccc2c(c1)OCO2)N1CCOCC1 (centres undefined) | inactive: -1.35% | 
Nn1cc(-c2ccccc2)nc1SCC(=O)N1CCN(S(=O)(=O)c2ccc3ccccc3c2)CC1 |  | inconclusive: 3.98 µM [inhibitor, single point]
Cc1ccc(NC(=O)CSc2nnc(Cc3cccn3C)n2-c2ccc(F)cc2)cc1 |  | inconclusive: 79.4 µM [inhibitor, partial curve, poor fit]
N#Cc1nc(-c2ccc(OCc3ccccc3Cl)cc2)oc1NCCCn1ccnc1 |  | inconclusive: 2.82 µM [inhibitor, partial curve, poor fit]
CC(=O)Nc1ccc(NC(=O)c2csnn2)cc1 |  | inconclusive: 31.6 µM [inhibitor, single point]
Cc1ccccc1CN1CCN(c2nc3ccccc3s2)CC1 | inactive: 58% [at 102 µM] | 
CCOC(=O)c1c(NC(=O)CN2C(=O)C(=O)N(CC(C)C)C2=O)sc(C)c1CC | inactive: -32.8% [at 102 µM] | 
O=C(CCCCCN1C(=O)c2ccccc2C1=O)Nc1ccc2c(c1)OCCO2 |  | inconclusive: 3.16 µM [inhibitor, single point]
CCOC(=O)N1CCC(NC(=O)c2sc(-n3cccc3)nc2C)CC1 |  | inconclusive: 89.1 µM [inhibitor, partial curve, poor fit]
COc1ccc(C(C[N+](=O)[O-])C2(c3ccc(OC)c(OC)c3)C(=O)c3ccccc3C2=O)cc1 (centres undefined) |  | inconclusive: 39.8 µM [inhibitor, single point]
Cc1cccc(/C=C/C(=O)c2cc(Br)ccc(=O)c2O)c1 |  | inconclusive: 1.26 µM [inhibitor, partial curve, poor fit]
O=[N+]([O-])c1ccc(S(=O)(=O)Nc2ccc(-c3csc(-c4ccccc4)n3)cc2)cc1 |  | inconclusive: 3.55 µM [inhibitor, single point]
CC(=O)NC1C(OCc2ccccc2)OC(COC(C)=O)C(OC(C)=O)C1OC(C)=O (centres undefined) |  | inconclusive: 28.2 µM [inhibitor, single point]
CC(C)(C)c1ccc(OCC(=O)O)cc1 |  | inconclusive: 1.41 µM [inhibitor, full curve, poor fit]

Compound | activity, negative = inhibition | Potency
COc1cccc2cc(C(=O)C3=C(O)C(=O)N(CCN(C)C)C3c3ccc(Cl)cc3)oc12 (centres undefined) |  | inconclusive: 70.8 µM [inhibitor, single point]
Cc1c(Cl)cccc1NC(=O)CCN1CCCCC1 |  | inconclusive: 1.58 µM [inhibitor, partial curve, poor fit]
CCCCN1CN(S(=O)(=O)c2cccs2)c2nc3ccccc3nc21 |  | inconclusive: 3.16 µM [inhibitor, partial curve, poor fit]
Cn1cnnc1Sc1ccc(C(=O)NCCC(c2ccccc2)c2ccccc2)cc1[N+](=O)[O-] |  | inconclusive: 39.8 µM [inhibitor, partial curve, poor fit]
CSCCC(N=C1NS(=O)(=O)c2ccccc21)C(=O)NCc1ccccc1F (centres undefined) |  | inconclusive: 56.2 µM [inhibitor, partial curve, poor fit]
CC(OC(=O)Cc1coc2cc3c(cc12)CCC3)C(=O)NCc1ccc2c(c1)OCO2 (centres undefined) |  | inconclusive: 39.8 µM [inhibitor, single point]
CC(OC(=O)c1cc(Cl)ccc1[N+](=O)[O-])C(=O)NC(C)c1ccc(F)cc1 (centres undefined) |  | inconclusive: 20 µM [inhibitor, partial curve, poor fit]
COc1ccc2c(c1)CCN(C(=O)CCl)C2C1C(=O)CCCC1=O (centres undefined) |  | inconclusive: 89.1 µM [inhibitor, single point]
CN1C(=O)/C(=C/c2cn(CC(=O)N3CCCCC3)c3ccccc23)NC1=S |  | active: 39.8 µM
O=C(COC(=O)C1CC1)NCCc1ccc(Cl)cc1 |  | inconclusive: 79.4 µM [inhibitor, single point]
CC(=O)c1ccc(NC(=O)c2cc3c([nH]c2=O)CC(c2ccccc2)CC3=O)cc1 (centres undefined) | inactive: -36.6% | 
O=C(CSc1nnc(CN2CCCCC2)n1-c1ccccc1)c1ccc2c(c1)OCO2 |  | inconclusive: 70.8 µM [inhibitor, single point]
O=C(N/N=C/C(Cl)=C/c1ccc([N+](=O)[O-])cc1)C(=O)Nc1cccc(C(=O)O)c1 |  | inconclusive: 89.1 µM [inhibitor, single point]
COc1ccc(CNc2oc(COc3ccc(Cl)cc3)nc2C#N)cc1 | inconclusive: -73.9% [inhibitor] | 
COc1ccc(CCNC(=O)c2cnn(-c3cccc(C)c3)c2C2CCNCC2)cc1OC |  | inconclusive: 15.8 µM [inhibitor, partial curve, poor fit]
CN1C(=O)Cc2cc(S(=O)(=O)CCC(=O)Nc3ccc(Cl)cc3)ccc21 | inactive: -17.7% | 
COc1cc(/C=N\NC(=O)c2ccc(-c3ccccc3)cc2)cc(OC)c1O |  | inconclusive: 89.1 µM [inhibitor, single point]
